Test results as given in patent publication US7816326B2, “Sulfur compounds as inhibitors of hepatitis C virus NS3 serine protease” (Schering Corporation, priority 2004, dated 2010).

Target: Recombinant heterodimeric HCV NS3/NS4A protease (strain 1a) (Hepatitis C virus genotype 1a, UniProt P27958)
Test: Spectrophotometric assay for HCV protease inhibitory activity
Format: biochemical
Conditions: HCV serine protease inhibitory activity ranges; read-out: Ki* Range
Excerpt: The present invention relates to novel HCV protease inhibitors. This utility can be manifested in their ability to inhibit the HCV NS2/NS4a serine protease.
Assay for HCV Protease Inhibitory Activity:
Spectrophotometric Assay: Spectrophotometric assay for the HCV serine protease can be performed on the inventive compounds by following the procedure described by R. Zhang et al, Analytical Biochemistry, 270 (1999) 268-275, the disclosure of which is incorporated herein by reference. The assay based on the proteolysis of chromogenic ester substrates is suitable for the continuous monitoring of HCV NS3 protease activity. The substrates are derived from the P side of the NS5A-NS5B junction sequence (Ac-DTEDVVX(Nva), where X=A or P) whose C-terminal carboxyl groups are esterified with one of four different chromophoric alcohols (3- or 4-nitrophenol, 7-hydroxy-4-methyl-coumarin, or 4-phenylazophenol). Illustrated below are the synthesis, characterization and application of these novel spectrophotometric ester substrates to high throughput screening and detailed kinetic evaluation of HCV NS3 protease inhibitors. Materials and Methods: Materials: Chemical reagents for assay related buffers are obtained from Sigma Chemical Company (St. Louis, Mo.). Reagents for peptide synthesis were from Aldrich Chemicals, Novabiochem (San Diego, Calif.), Applied Biosystems (Foster City, Calif.) and Perseptive Biosystems (Framingham, Mass.). Peptides are synthesized manually or on an automated ABI model 431A synthesizer (from Applied Biosystems). UV/VIS Spectrometer model LAMBDA 12 was from Perkin Elmer (Norwalk, Conn.) and 96-well UV plates were obtained from Corning (Corning, N.Y.). The prewarming block can be from USA Scientific (Ocala, Fla.) and the 96-well plate vortexer is from Labline Instruments (Melrose Park, Ill.). A Spectramax Plus microtiter plate reader with monochrometer is obtained from Molecular Devices (Sunnyvale, Calif.). […] Protein concentrations are determined by the Biorad dye method using recombinant HCV protease standards previously quantified by amino acid analysis. Prior to assay initiation, the enzyme storage buffer (50 mM sodium phosphate pH 8.0, 300 mM NaCl, 10% glycerol, 0.05% lauryl maltoside and 10 mM DTT) is exchanged for the assay buffer (25 mM MOPS pH 6.5, 300 mM NaCl, 10% glycerol, 0.05% lauryl maltoside, 5 μM EDTA and 5 μM DTT) utilizing a Biorad Bio-Spin P-6 prepacked column. Substrate Synthesis and Purification: The synthesis of the substrates is done as reported by R. Zhang et al, (ibid.) and is initiated by anchoring Fmoc-Nva-OH to 2-chlorotrityl chloride resin using a standard protocol (K. Barlos et al, Int. J. Pept. Protein Res., 37 (1991), 513-520). The peptides are subsequently assembled, using Fmoc chemistry, either manually or on an automatic ABI model 431 peptide synthesizer. […] The combined filtrate and DCM wash is evaporated azeotropically (or repeatedly extracted by aqueous Na2CO3 solution) to remove the acid used in cleavage. The DCM phase is dried over Na2SO4 and evaporated.
The ester substrates are assembled using standard acid-alcohol coupling procedures (K. Holmber et al, Acta Chem. Scand., B33 (1979) 410-412). Peptide fragments are dissolved in anhydrous pyridine (30-60 mg/ml) to which 10 molar equivalents of chromophore and a catalytic amount (0.1 eq.) of para-toluenesulfonic acid (pTSA) were added. Dicyclohexylcarbodiimide (DCC, 3 eq.) is added to initiate the coupling reactions. Product formation is monitored by HPLC and can be found to be complete following 12-72 hour reaction at room temperature. Pyridine solvent is evaporated under vacuum and further removed by azeotropic evaporation with toluene.

Row | Compound | Ki [nM]
1 | CCCC[C@H](NC(=O)[C@@H]1[C@@H]2[C@H](CN1C(=O)[C@@H](NC(=O)N[C@H]([C@H]1CCN(C)S1(=O)=O)C(C)(C)C)C(C)(C)C)C2(C)C)C(=O)C(=O)NC1CC1 [compound 1226] | > 250
2 | CC(C)N(C)S(=O)(=O)CC1(NC(=O)N[C@H](C(=O)N2C[C@H]3[C@@H]([C@H]2C(=O)N[C@@H](CC2CC2)C(=O)C(=O)NC2CC2)C3(C)C)C2(C)CCCCC2)CCCCC1 [compound 1338] | < 75
3 | CCC[C@H](NC(=O)[C@@H]1[C@@H]2[C@H](CN1C(=O)[C@@H](NC(=O)NC1(CS(=O)(=O)N(C)C(C)(C)CF)CCCCC1)C1(C)CCCCC1)C2(C)C)C(=O)C(=O)NC1CC1 [compound 1368] | < 75
4 | CCC[C@H](NC(=O)[C@@H]1[C@@H]2[C@H](CN1C(=O)[C@@H](NC(=O)NC1([C@@H]3CCN(CC)S3(=O)=O)CCCCC1)C(C)(C)C)C2(C)C)C(=O)C(=O)NC1CC1 [compound 1209] | < 75
5 | CCC[C@H](NC(=O)[C@@H]1[C@@H]2[C@H](CN1C(=O)[C@@H](NC(=O)NC1(CS(=O)(=O)N(C)C(C)(C)C)CCCCC1)C(C)(C)C)C2(C)C)C(=O)C(=O)NC1CC1 [compound 1274] | < 75
6 | CCCC[C@H](NC(=O)[C@@H]1[C@@H]2[C@H](CN1C(=O)[C@@H](NC(=O)NC1(CS(=O)(=O)N3CCCCC3)CCCCC1)C(C)(C)C)C2(C)C)C(=O)C(=O)NC1CC1 [compound 1219] | < 75
7 | CN(C(C)(C)C1CC1)S(=O)(=O)CC1(NC(=O)N[C@H](C(=O)N2C[C@H]3[C@@H]([C@H]2C(=O)N[C@@H](CCC2CC2)C(=O)C(=O)NC2CC2)C3(C)C)C(C)(C)C)CCCCC1 [compound 1299] | < 75
8 | CC1([C@H](NC(=O)NC2(CS(=O)(=O)N3CCC3)CCCCC2)C(=O)N2C[C@H]3[C@@H]([C@H]2C(=O)N[C@@H](CCC2CC2)C(=O)C(=O)NC2CC2)C3(C)C)CCCCC1 [compound 1348] | < 75
9 | CCCC[C@H](NC(=O)[C@@H]1[C@@H]2[C@H](CN1C(=O)[C@@H](NC(=O)NC1(CS(=O)(=O)N(C)CC3CC3)CCCCC1)C(C)(C)C)C2(C)C)C(=O)C(=O)NC1CC1 [compound 1270] | < 75
10 | CC(C)(C)[C@H](NC(=O)NC1(CS(=O)(=O)N2CCCC2)CCCCC1)C(=O)N1C[C@H]2[C@@H]([C@H]1C(=O)N[C@@H](CCC1CC1)C(=O)C(=O)NC1CC1)C2(C)C [compound 1211] | < 75
11 | CC(C)(C)[C@H](NC(=O)NC1(CS(=O)(=O)N2CCOCC2)CCCCC1)C(=O)N1C[C@H]2[C@@H]([C@H]1C(=O)N[C@@H](CCC1CC1)C(=O)C(=O)NC1CC1)C2(C)C [compound 1384] | < 75
12 | C[C@@H](C1(NC(=O)N[C@H](C(=O)N2C[C@H]3[C@@H]([C@H]2C(=O)N[C@@H](CCC2CC2)C(=O)C(=O)NC2CC2)C3(C)C)C2(C)CCCCC2)CCCCC1)S(=O)(=O)N(C)C [compound 1412] | < 75
13 | CN(C(C)(C)C1CC1)S(=O)(=O)CC1(NC(=O)N[C@H](C(=O)N2C[C@H]3[C@@H]([C@H]2C(=O)N[C@@H](CC2CC2)C(=O)C(=O)NC2CC2)C3(C)C)C(C)(C)C)CCCCC1 [compound 1310] | < 75
14 | CCCC[C@H](NC(=O)[C@@H]1[C@@H]2[C@H](CN1C(=O)[C@@H](NC(=O)NC1([C@@H](C)S(=O)(=O)N(C)C3CC3)CCCCC1)C(C)(C)C)C2(C)C)C(=O)C(=O)NC1CC1 [compound 1415] | < 75
15 | CCCC[C@H](NC(=O)[C@@H]1[C@@H]2[C@H](CN1C(=O)[C@@H](NC(=O)NC1(CS(=O)(=O)N(C)[C@@H](C)C3CC3)CCCCC1)C(C)(C)C)C2(C)C)C(=O)C(=O)NC1CC1 [compound 1286] | < 75
16 | CC(C)N(C1CC1)S(=O)(=O)CC1(NC(=O)N[C@H](C(=O)N2C[C@H]3[C@@H]([C@H]2C(=O)N[C@@H](CCC2CC2)C(=O)C(=O)NC2CC2)C3(C)C)C2(C)CCCCC2)CCCCC1 [compound 1376] | < 75

Row | Compound | Ki [nM]
17 | CC(C)N(C1CC1)S(=O)(=O)CC1(NC(=O)N[C@H](C(=O)N2C[C@H]3[C@@H]([C@H]2C(=O)N[C@@H](CCC2CC2)C(=O)C(=O)NC2CC2)C3(C)C)C(C)(C)C)CCCCC1 [compound 1330] | < 75
18 | CCC[C@H](NC(=O)[C@@H]1[C@@H]2[C@H](CN1C(=O)[C@@H](NC(=O)NC1([C@H]3CCN(C)S3(=O)=O)CCCCC1)C(C)(C)C)C2(C)C)C(=O)C(=O)NC1CC1 [compound 1202] | < 75
19 | CCN(C)S(=O)(=O)CC1(NC(=O)N[C@H](C(=O)N2C[C@H]3[C@@H]([C@H]2C(=O)N[C@@H](CCC2CC2)C(=O)C(=O)NC2CC2)C3(C)C)C(C)(C)C)CCCCC1 [compound 1283] | < 75
20 | CC(C)(C)[C@H](NC(=O)NC1(CS(=O)(=O)N2CCOCC2)CCCCC1)C(=O)N1C[C@H]2[C@@H]([C@H]1C(=O)N[C@@H](CC1CC1)C(=O)C(=O)NC1CC1)C2(C)C [compound 1387] | < 75
21 | CCCC[C@H](NC(=O)[C@@H]1[C@@H]2[C@H](CN1C(=O)[C@@H](NC(=O)NC1(CS(=O)(=O)N(C)C)CCCCC1)C1CCCCC1)C2(C)C)C(=O)C(=O)NC1CC1 [compound 1241] | < 75
22 | CCC[C@H](NC(=O)[C@@H]1[C@@H]2[C@H](CN1C(=O)[C@@H](NC(=O)NC1([C@H](C)S(=O)(=O)N(C)C)CCCCC1)C(C)(C)C)C2(C)C)C(=O)C(=O)NC1CC1 [compound 1403] | < 75
23 | CCCC[C@H](NC(=O)[C@@H]1[C@@H]2[C@H](CN1C(=O)[C@@H](NC(=O)NC1(CS(=O)(=O)N(C)C(C)(C)C)CCCCC1)C1(C)CCCCC1)C2(C)C)C(=O)C(=O)NC1CC1 [compound 1276] | < 75
24 | CCN(C(C)C)S(=O)(=O)CC1(NC(=O)N[C@H](C(=O)N2C[C@H]3[C@@H]([C@H]2C(=O)N[C@@H](CCC2CC2)C(=O)C(=O)NC2CC2)C3(C)C)C2(C)CCCCC2)CCCCC1 [compound 1304] | < 75
25 | CCCC[C@H](NC(=O)[C@@H]1[C@@H]2[C@H](CN1C(=O)[C@@H](NC(=O)NC1(CS(=O)(=O)N(C)C3CCC3)CCCCC1)C(C)(C)C)C2(C)C)C(=O)C(=O)NC1CC1 [compound 1383] | < 75
26 | CON(C)S(=O)(=O)CC1(NC(=O)N[C@H](C(=O)N2C[C@H]3[C@@H]([C@H]2C(=O)N[C@@H](CCC2CC2)C(=O)C(=O)NC2CC2)C3(C)C)C2(C)CCCCC2)CCCCC1 [compound 1232] | < 75
27 | CCCC[C@H](NC(=O)[C@@H]1[C@@H]2[C@H](CN1C(=O)[C@@H](NC(=O)NC1(CS(=O)(=O)N(CC)C(C)C)CCCCC1)C(C)(C)C)C2(C)C)C(=O)C(=O)NC1CC1 [compound 1300] | < 75
28 | CCCC[C@H](NC(=O)[C@@H]1[C@@H]2[C@H](CN1C(=O)[C@@H](NC(=O)NC1(CS(=O)(=O)N(CC)CC)CCCCC1)C(C)(C)C)C2(C)C)C(=O)C(=O)NC1CC1 [compound 1256] | < 75
29 | CN(C1CC1)S(=O)(=O)CC1(NC(=O)N[C@H](C(=O)N2C[C@H]3[C@@H]([C@H]2C(=O)N[C@@H](CC2CC2)C(=O)C(=O)NC2CC2)C3(C)C)C2(C)CCCCC2)CCCCC1 [compound 1308] | < 75
30 | CCCC[C@H](NC(=O)[C@@H]1[C@@H]2[C@H](CN1C(=O)[C@@H](NC(=O)NC1([C@@H]3CCN(CC)S3(=O)=O)CCCCC1)C(C)(C)C)C2(C)C)C(=O)C(=O)NC1CC1 [compound 1207] | < 75
31 | CCC[C@H](NC(=O)[C@@H]1[C@@H]2[C@H](CN1C(=O)[C@@H](NC(=O)NC1(CS(=O)(=O)N(C)C3CC3)CCCCC1)C1(C)CCCCC1)C2(C)C)C(=O)C(=O)NC1CC1 [compound 1307] | < 75
